Data published in PubChem BioAssay AID624417 (National Center for Advancing Translational Sciences (NCATS), 2012).
The whole screen tested about 410,000 compounds, of which about 6,400 (1.6%) were called active. The inconclusive results got no clear call from the source; some entries with a clear call stand among them for comparison. The call rests on the fitted dose curve; in most records, active means well fitted inhibition curve with a large enough effect; inconclusive means small, poorly fitted or top-dose-only effect; inactive means no such curve, though single readings can be large or run the other way. Potencies of inconclusive entries are left out as doubtful fits.

target: Glucagon-like peptide 1 receptor (Homo sapiens) (UniProt P43220); assay: qHTS of GLP-1 Receptor Inverse Agonists (Inhibition Mode); details: HEK293 GLP-1R CRE-luciferase, luminescence, 24 h, GLP-1R form is constitutively active; activity change, negative = inhibition: at 38.3 µM (top of the series) unless noted; further: nearly all actives have a fitted effect of over 55% in size
How it was run: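 HEK293 cells stably co-expressing constitutively active GLP-1R and a cAMP-responsive luciferase reporter were seeded in DMEM with 10% Nu serum, given compounds after 12 h, and incubated 24 h at 37 deg C. Luminescence was then read.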
On the % scale 0 is the no-effect control and ±100 the full control effect; potency means the concentration at half of the fitted maximal effect; tags describe the fitted curve by direction and shape.

UniProt P43220, sequence (P43220 whole entry, looked up): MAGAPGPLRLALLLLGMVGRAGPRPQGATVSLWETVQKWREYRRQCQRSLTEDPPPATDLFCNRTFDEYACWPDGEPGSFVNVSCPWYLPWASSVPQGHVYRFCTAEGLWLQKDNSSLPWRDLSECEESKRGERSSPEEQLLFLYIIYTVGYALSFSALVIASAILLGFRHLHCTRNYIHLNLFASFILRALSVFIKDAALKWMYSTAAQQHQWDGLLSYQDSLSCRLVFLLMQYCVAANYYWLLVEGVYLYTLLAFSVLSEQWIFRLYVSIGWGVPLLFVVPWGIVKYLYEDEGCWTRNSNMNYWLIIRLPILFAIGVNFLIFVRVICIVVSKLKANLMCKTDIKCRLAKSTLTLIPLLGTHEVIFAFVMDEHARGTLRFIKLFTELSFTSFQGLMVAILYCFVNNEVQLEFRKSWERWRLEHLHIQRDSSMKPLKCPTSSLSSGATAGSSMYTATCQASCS

Row | SMILES | Potency | activity change, negative = inhibition
1 | CCCCn1nc(C(=O)NCc2ccccc2CN2CCCC2)c2ccccc2c1=O | inconclusive [inhibitor, partial curve, poor fit] | –
2 | Clc1ccc(Nc2nc(-c3ccccc3)c3ccccc3n2)c(Cl)c1 | – | inactive: 1.46%
3 | CCCCN(CC)C(=S)Nc1ccc2nc(N3CCN(C)CC3)cc(C)c2c1 | inconclusive [inhibitor, partial curve, poor fit] | –
4 | CC(=O)NC1C(=O)N(Cc2ccccc2)c2ccc(Br)cc21 (configuration not stated) | inconclusive [inhibitor, partial curve, poor fit] | –
5 | CCOc1ccc(Br)cc1C1=CC(=O)C[C@H](c2ccc(OC)cc2)C1 | inconclusive [inhibitor, partial curve, poor fit] | –
6 | COc1ccccc1C(=O)Nc1cccc(OCc2cc(=O)n3c(C)csc3n2)c1 | inconclusive [inhibitor, single point] | –
7 | O=C(Cc1ccc(S(=O)(=O)N2CCOCC2)s1)N1CCN(S(=O)(=O)c2cccc(Cl)c2)CC1 | inconclusive [inhibitor, partial curve, poor fit] | –
8 | CCOc1ccc(CNC(c2ccccc2)c2ccccc2)cc1 | active: 7.08 µM | –
9 | COc1ccc2sc(-c3ccc(N(C)C)cc3)c(-c3ccc4cc[nH]c4c3)c2c1 | inconclusive [inhibitor, partial curve, poor fit] | –
10 | COc1cccc(-c2cc(C(F)(F)F)nc(N3CCC(C)CC3)n2)c1 | inconclusive [inhibitor, partial curve, poor fit] | –
11 | O=C(NCCc1ccccn1)c1c(-c2ccccc2)sc2ccccc12 | inconclusive [inhibitor, partial curve, poor fit] | –
12 | CCCc1ncc(CN2CCCC(C(=O)Nc3ccc(-c4cccc(OC)c4)cc3)C2)cn1 (configuration not stated) | inconclusive [inhibitor, single point] | –
13 | CSc1ccccc1OCc1cc(C(=O)NCCCn2nc(C)cc2C)no1 | inconclusive [inhibitor, partial curve, poor fit] | –
14 | CC(=O)n1cc([C@H]2C=C(C(=O)N3CCN(Cc4ccc5c(c4)OCO5)CC3)O[C@@H](OCc3ccc(CO)cc3)C2)c2ccccc21 | inconclusive [inhibitor, single point] | –
15 | Cc1ccccc1CN1C(=O)c2ccccc2Sc2ccc(C(=O)O)cc21 | inconclusive [inhibitor, single point] | –
16 | O=C(NCC(c1ccco1)N1CCc2ccccc2C1)C(=O)Nc1ccccc1 (configuration not stated) | – | inactive: -34.7%
17 | CSc1ccc(/C=N\Nc2nncn2N)cc1 | inconclusive [inhibitor, single point] | –
18 | COc1ccc(C2NC(=O)c3ccccc3N2)cc1OC (configuration not stated) | – | inactive: 76.4%
19 | Cc1ccc(NC(=O)C2CCCN(c3cnccn3)C2)cc1Cl (configuration not stated) | – | inactive: 2.83%
20 | O=S(=O)(NCCc1ccccc1)c1cccc2cccnc12 | inconclusive [inhibitor, single point] | –
21 | O=c1[nH]c(CSc2ncc(C(F)(F)F)cc2Cl)nc2ccccc12 | inconclusive [inhibitor, single point] | –

Row | SMILES | Potency | activity change, negative = inhibition
22 | Cc1ccc(CS(=O)Cc2ccc(C(=O)NCc3ccccc3Cl)o2)cc1 (configuration not stated) | inconclusive [inhibitor, partial curve, poor fit] | –
23 | Cc1ccc(-c2noc(C3CC(=O)N(c4ccc5c(c4)OCCO5)C3)n2)cc1 (configuration not stated) | – | inactive: 16.3%
24 | Cc1ccnc(NC(=O)CCC(=O)N(CC(=O)NC(C)(C)C)c2ccc(F)c(Cl)c2)c1 | inconclusive [inhibitor, single point] | –
25 | CCCc1ccc(NC(C)C(=O)Nc2ccc(S(=O)(=O)N3CCOCC3)cc2)cc1 (configuration not stated) | inconclusive [inhibitor, single point] | –
26 | Cc1cc(C)c2cc(CN(CCN3CCCC3)C(=O)Nc3ccc(F)cc3)c(=O)[nH]c2c1 | inconclusive [inhibitor, partial curve, poor fit] | –
27 | Cc1ccc2nc(-c3ccc(Cl)cc3)c(Cc3ccccn3)n2c1 | inconclusive [inhibitor, single point] | –
28 | Cc1ccc(Nc2ncnc3nc[nH]c23)cc1Cl | inconclusive [inhibitor, single point] | –
29 | Cc1cccc(Nc2nc(-c3c(C)nc4ccccn34)cs2)c1 | inconclusive [inhibitor, single point] | –
30 | Cc1onc(-c2c(Cl)cccc2Cl)c1C(=O)N[C@@H]1C(=O)N2[C@@H]1SC(C)(C)[C@@H]2C(=O)O | inactive | –
31 | O=C(Cn1cc(SCc2ccc(F)cc2)c2ccccc21)N1CCOCC1 | inconclusive [inhibitor, single point] | –
32 | COc1nc(C)nc(C)c1Oc1ccc(Cl)cc1Cl | inconclusive [inhibitor, single point] | –
33 | CCc1ccc(N2C(=O)CS(=O)(=O)C23C(=O)N(Cc2ccccc2F)c2ccccc23)cc1 (configuration not stated) | – | inactive: -26.5%
34 | CCOc1cc(C2c3c(oc4ccccc4c3=O)C(=O)N2Cc2ccccc2Cl)ccc1O (configuration not stated) | – | inactive: 4.18%
35 | Cc1c(Cl)c([N+](=O)[O-])nn1CC(=O)N1CCc2ccccc2C1 | inconclusive [inhibitor, single point] | –
36 | O=C(NC(=S)Nc1ccc(N2CCCCC2)c(Cl)c1)c1ccc2c(c1)OCCO2 | inconclusive [inhibitor, partial curve] | –
37 | Fc1ccc(/C=N/NC(=S)Nc2ccc(Cl)cc2Cl)cc1 | inconclusive [inhibitor, partial curve, poor fit] | –
38 | CCNc1ccc(Br)cc(C(=O)/C=C/c2c(Cl)cccc2Cl)c1=O | – | inactive: 0%
39 | CC(C)(C)c1ccc(C(=O)NC(=S)Nn2cnnc2)cc1 | – | inactive: 11.1%
40 | CCN(c1ccccc1)S(=O)(=O)c1cc(NC(=O)CN2CCN(C)CC2)ccc1Cl | inconclusive [inhibitor, partial curve, poor fit] | –
41 | CC(C)(C)OC(=O)N1CCC[C@H]1c1nnc(SCc2c(Cl)cccc2Cl)o1 | inconclusive [inhibitor, partial curve, poor fit] | –
42 | CCc1nc2ccc(C(=O)NCCOc3ccc(OC)cc3)cn2c1N(C)Cc1cccs1 | inconclusive [inhibitor, partial curve, poor fit] | –

Row | SMILES | Potency | activity change, negative = inhibition
43 | O=C(COC(=O)c1ccncc1)NCCCc1ccccc1 | – | inactive: 21.4%
44 | Cn1cc([N+](=O)[O-])c(C(=O)Nc2nccs2)n1 | inconclusive [inhibitor, single point] | –
45 | CCc1ccc2c(c1)NC(=O)C2(C)Cc1ccccc1 (configuration not stated) | inconclusive [inhibitor, single point] | –
46 | COc1ccccc1CNC(=O)C(=O)NCCC1CCCCN1S(=O)(=O)c1ccccc1 (configuration not stated) | inconclusive [inhibitor, partial curve, poor fit] | –
47 | CCc1cc(OCCN(C)C)ccc1Cl | – | inactive: -3.93%
48 | CCOc1ccc(NC(=O)CN2CCN(CC(=O)Nc3cccc(F)c3)CC2)cc1 | inconclusive [inhibitor, single point] | –
49 | COc1ccc(OC)c(/C=N/NC(=O)c2c(C)nc3ccc(C)cn23)c1 | inconclusive [inhibitor, partial curve, poor fit] | –
50 | O=C1CSC(c2ccc([N+](=O)[O-])cc2)N1c1ccccc1F (configuration not stated) | inconclusive [inhibitor, single point] | –
51 | CC(C)c1nnc(NC(=O)c2nc(S(=O)(=O)Cc3ccccc3)ncc2Cl)s1 | inconclusive [inhibitor, single point] | –
52 | COc1ccccc1CNC(=O)c1cc2c(=O)n(Cc3cccs3)ccc2nc1C | inconclusive [inhibitor, partial curve, poor fit] | –
53 | CCOC(=O)c1[nH]c2c(c1C)C(=O)CC(c1ccc(F)cc1)C2 (configuration not stated) | inconclusive [inhibitor, full curve, poor fit] | –
54 | O=C(c1c(F)cccc1F)N(C1CCCCC1)C1CCCCC1 | inconclusive [inhibitor, partial curve, poor fit] | –
55 | COc1ccc(Cl)cc1NC(=O)CSc1cn(CC(=O)N2CCCC2)c2ccccc12 | inconclusive [inhibitor, partial curve, poor fit] | –
56 | COCCCNc1nc2ccccc2nc1NS(=O)(=O)c1cc(Cl)ccc1Cl | inconclusive [inhibitor, partial curve, poor fit] | –
57 | CCCCCNC(=O)C(CCc1ccccc1)n1c(=O)c(-c2ccccc2)nc2ccccc21 (configuration not stated) | inconclusive [inhibitor, partial curve, poor fit] | –
58 | O=C(NCCc1c[nH]c2ccccc12)C(=O)NCC1OCCN1S(=O)(=O)c1ccc(Cl)cc1 (configuration not stated) | inconclusive [inhibitor, single point] | –
59 | COc1cccc(CNc2nc(NCc3ccccc3)nc3ccsc23)c1 | inconclusive [inhibitor, single point] | –
60 | CC(C)CC(/C(O)=C(\C#N)c1nc2ccccc2[nH]1)N1C(=O)c2ccccc2C1=O (configuration not stated) | inconclusive [inhibitor, partial curve] | –
61 | Cc1cc(NC(=O)CN2C(=O)CSc3ccc(S(=O)(=O)N(C)C)cc32)ccc1Br | inconclusive [inhibitor, partial curve, poor fit] | –
62 | COc1ccccc1C/C(N)=N/OC(=O)COc1cc(C)cc(C)c1C | inconclusive [inhibitor, partial curve] | –
